Our source for the viscosity values is the CheMixHub viscosity set.

± gives the uncertainty stated by the source. The source holds more than one record for some entries. The other results are left out here. The source may hold further records. Results that share an entry repeat one measurement in other runs, samples, wells, individuals or studies. A tag in brackets gives the origin of a value. Letters hold for one entry only.

For the data set the following is noted: 101 kPa.

With `CCC(C)O` (stereo not given), the viscosity (298.15 K) is 2.58 ± 0.6 mPa·s [study A] and 2.934 ± 0.077 mPa·s [study B] and 3.06 ± 0.028 mPa·s [study C] and 3.15 ± 0.048 mPa·s [study D].

`Cc1cccc(C)c1`: for the setting “303.15 K”, the viscosity was 0.538 ± 0.005 mPa·s [study A] and 0.5531 ± 0.015 mPa·s [study B] and 0.5009 ± 0.0079 mPa·s [study C] and 0.572 ± 0.015 mPa·s [study D].

Regarding `O=S1(=O)CCCC1`, the viscosity (308.15 K) is 8.95 ± 0.19 mPa·s [study A] and 9.033 ± 0.12 mPa·s [study B] and 8.833 ± 0.045 mPa·s [study C] and 8.795 ± 0.07 mPa·s [study D] and 9.05 ± 0.91 mPa·s [study E] and 9.05 ± 0.93 mPa·s [study F].

Turning to `CCCCn1cc[n+](C)c1.F[B-](F)(F)F`, the viscosity reads like this: (298.15 K) 98.95 ± 6.9 mPa·s [study A] and 98.86 ± 6.3 mPa·s [study B] and 106 ± 2 mPa·s [study C] and 116 ± 40 mPa·s [study D]; (303.15 K) 84.2 ± 1.6 mPa·s [study A] and 78.84 ± 1.6 mPa·s [study B] and 76.32 ± 4.7 mPa·s [study C] and 82.2 ± 1.7 mPa·s [study D].

As usually defined, the viscosity is the resistance of a fluid to flow. Read a low viscosity as easy flow.
